# “And” between values parts separate entries of the source, which are not always exact repeats. Equal values may be shown once. Screen size: about 360,000 compounds; about 6,000 (1.7%) were called active. This list was built around the results that the source calls inconclusive (neither active nor inactive); the mix of calls is not that of the screen. Calls follow the shape of the dose curve; as a rule, active = well fitted cell-killing curve with a large enough effect; inconclusive = small, poorly fitted or top-dose-only effect, or effect the other way; inactive = flat fitted curve, though single readings scatter. No potency is given beside an inconclusive call; the fits are too rough.
# Assay: qHTS for induction of synthetic lethality in tumor cells producing 2HG: qHTS for the HT-1080-NT fibrosarcoma cell line;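 also: NT is the 2HG producing partner of a matched IDH1 knockdown line; nearly all actives have a fitted effect of over 55% in size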;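 as to activity, negative = less viability: 0% = DMSO-treated cells and -100% = media-only wells without cells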
# Settings: HT-1080-NT fibrosarcoma viability, CellTiter-Glo ATP luminescence, 48 h; activity, negative = less viability: at 46.1 µM (top of the series) unless noted
# How it was run: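 Fibrosarcoma NT cells, 750 per well in 5% FBS RPMI, were exposed to compound for 48 hours. Viability: CellTiter-Glo luminescence.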
# Potency is read from the fitted curve at half-maximal effect; tags tell the direction and shape of the fitted curve.
SMILES,Potency,"activity, negative = less viability"
O=c1[nH]cnc2c1ncn2[C@H]1CC[C@@H](CO)O1,inactive,
CS(=O)(=O)N1N=C(c2ccco2)CC1c1ccco1 (configuration not stated),inactive,
O=CN/C=C/c1cc(O)ccc1O,inactive,
O=C(/C=C/c1ccccc1[N+](=O)[O-])c1ccccc1Br,"inconclusive [cytotoxic, single point]",
CC(C)Cn1c(/C=N/Nc2nc3ccccc3[nH]2)nc2ccccc21,"inconclusive [cytotoxic, full curve]",
CCOC(=O)C1CCCN(C2=C(NS(=O)(=O)c3ccc(Br)cc3)C(=O)c3ccccc3C2=O)C1 (configuration not stated),"inconclusive [cytotoxic, single point]",
Cc1nc(-c2nnc(SCC(=O)Nc3ccc(Cl)cc3)n2C)cs1,"inconclusive [cytotoxic, partial curve, poor fit]",
O=C1NC2(CCSC2)C(=O)N1CC(=O)N(Cc1ccccc1)C1CCS(=O)(=O)C1 (configuration not stated),"inconclusive [rising, partial curve]",
CC(C)COn1c(=S)[nH]c2ccccc2c1=O,"inconclusive [cytotoxic, single point]",
COc1ccccc1/C=C/C=N/NC(=O)CCn1cnc2ccccc21,active: 10.3 µM,
Cc1nc2sccn2c(=O)c1S(=O)(=O)Nc1ccc(N2CCOCC2)c(Cl)c1,inactive,
O=C(CCc1ccccc1)NNC(=S)NC(=O)c1ccccc1,"inconclusive [cytotoxic, single point]",
COC(=O)[C@]1(CC(C)C)N[C@H](c2ccc(-c3cccc(Cl)c3)cc2)[C@@H]2C(=O)N(C)C(=O)[C@@H]21,"inconclusive [cytotoxic, partial curve]",
COc1ccc([C@H]2CC(=O)C=C(/C=C/Cc3ccccc3)C2)cc1,"inconclusive [cytotoxic, single point]",
Cc1ccc(NC(=O)c2ccoc2C)cc1C,"inconclusive [cytotoxic, single point]",
CCC(C)(C)C1CCC(=NNC(=S)Nc2ccccc2)CC1 (configuration not stated),inactive,
COc1ccc2nc3oc(C(=O)NC4CCN(Cc5ccccc5)CC4)cc3cc2c1,"inconclusive [cytotoxic, partial curve]",
CC1CCCCN1C(=O)c1cc2nc(-c3ccccc3)cc(-c3ccccc3)n2n1 (configuration not stated),"inconclusive [cytotoxic, partial curve]",
O=C(N/C(=C\c1ccc([N+](=O)[O-])cc1)C(=O)N1CCCCC1)c1ccccc1,inactive,
CCOC(=O)/C=C/C(=O)Nc1ccc(S(=O)(=O)Nc2c(C)cc(C)cc2C)cc1,"inconclusive [cytotoxic, single point]",
COc1ccc(Br)cc1CNC(=O)C1CCN(c2nnc(N3CCCC3=O)s2)CC1,"inconclusive [cytotoxic, single point]",

SMILES,Potency,"activity, negative = less viability"
COc1ccc(/C(C)=N/NC(=O)c2cccc(S(=O)(=O)N3CCCC3)c2)c(O)c1,"inconclusive [cytotoxic, full curve, poor fit]",
CN(C)CCCNc1cc(C(C)(C)C)nc2c(-c3ccc(Cl)cc3)cnn12,active: 18.4 µM,
CC(C)Oc1ccc2ccccc2c1CNC[C@H]1O[C@@H](n2ccc(=O)[nH]c2=O)[C@H](O)[C@@H]1O,inactive,
OC(CSc1ccccc1Cl)CN1CCN(c2ccc(F)cc2)CC1 (configuration not stated),"inconclusive [cytotoxic, single point]",
COc1ccc(NC(=O)CN2C(=O)/C(=C3\SC(=S)N(CCC(=O)O)C3=O)c3ccccc32)cc1,"inconclusive [cytotoxic, single point]",
CCOC(=O)N1CCC(NC(=O)C2CCN(c3nc(-c4ccc(OC)cc4)no3)CC2)CC1,inactive,
Cc1ccccc1NC(=O)Cc1nc(COC(=O)CCNS(=O)(=O)c2ccccc2)cs1,inactive,
O=C1/C(=C\c2ccccc2)CCC/C1=C/c1ccccc1,"inconclusive [cytotoxic, single point]",
Fc1ccc([C@@H]2CCNC[C@H]2COc2ccc3c(c2)OCO3)cc1,active: 16.4 µM and active: 20.6 µM,
CCOc1ccc(OCC(=O)OCc2cc(=O)n3cc(Br)ccc3n2)cc1,,inconclusive: 4.55%
COc1ccc(CCNc2nc(N3CCCCC3)nc(N3CCCCC3)n2)cc1OC,"inconclusive [cytotoxic, single point]",
CC1(C)O[C@@H]2[C@H](O1)[C@@H](CO)O[C@H]2n1cnc2c(N)ncnc21,,inconclusive: 31%
CCC(C(=O)Nc1sc(C(N)=O)c(C)c1C(=O)OC)c1ccccc1 (configuration not stated),"inconclusive [cytotoxic, partial curve, poor fit]",
CC(C)N1CCCC(C)(C(=O)Nc2nc3ccccc3[nH]2)C1 (configuration not stated),"inconclusive [rising, single point]",
COc1ccc(-n2c(=S)[nH]c3cc(C(=O)Nc4ccc(C)c(F)c4)ccc3c2=O)c(OC)c1,"inconclusive [cytotoxic, partial curve]",
COC(=O)c1c(NC(=O)CCNCc2ccco2)sc2c1CCC2,"inconclusive [cytotoxic, partial curve]",
CC(=O)Oc1cc2cccc(OC(C)=O)c(=O)c2c(OC(C)=O)c1OC(C)=O,"inconclusive [cytotoxic, partial curve]",
O=[N+]([O-])c1ccc(OC/C=C2\Oc3ccc([N+](=O)[O-])cc3C2N2CCOCC2)cc1 (configuration not stated),"inconclusive [cytotoxic, partial curve]",
Cc1nc2nc[nH]n2c(=O)c1NS(=O)(=O)c1ccc(F)cc1,"inconclusive [rising, single point]",
CC(=O)N1CCN(S(=O)(=O)c2cccc(C(=O)N3CCN(S(=O)(=O)c4c(C)c(C)cc(C)c4C)CC3)c2)CC1,inactive,
COc1ccc(CCN2CCCC(CN(C)Cc3cccc(OC)c3)C2)cc1 (configuration not stated),"inconclusive [cytotoxic, partial curve]",
